The list shows a part of the results. Most values come without repeats; read them as rough.
Tested on: COLO829
Experiment: cell count relative to DMSO control; melanoma cells; higher = more viable cells
Settings: library dose: low library concentration; 72 h
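Note: cell number obtained by counting DAPI-stained nuclei in high-throughput microscope images with image analysis software, screen run in 1,536-well plates.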

SMILES	cell count
COc1ccc(COc2ccc(Cc3cnc(N)nc3N)cc2OC)cc1 + Cc1cc(SCc2sc(-c3ccc(C(F)(F)F)c(F)c3)nc2C)ccc1OCC(=O)O [GW0742] (first compound 1 µM, partner dose 2 µM)	110%
Clc1ccc(Nc2nnc(Cc3ccncc3)c3ccccc23)cc1 [vatalanib] + C[As](C)SC[C@H](NC(=O)CC[C@H](N)C(=O)O)C(=O)NCC(=O)O [Darinaparsin] (first compound 2 µM, partner dose 0.4 µM)	94%
COc1ccc(COc2ccc(Cc3cnc(N)nc3N)cc2OC)cc1 + C/C(O)=C(\C#N)C(=O)Nc1cc(Br)ccc1Br [LFM-A13] (first compound 1 µM, partner dose 2 µM)	106%
COCC[n+]1c2c(n(Cc3cnccn3)c1C)C(=O)c1ccccc1C2=O + Cc1cc(SCc2sc(-c3ccc(C(F)(F)F)c(F)c3)nc2C)ccc1OCC(=O)O [GW0742] (first compound 0.0004 µM, partner dose 2 µM)	96.9%
O=C(CCCCCCC(=O)Nc1ccccc1)NO [vorinostat] + Cc1cc(SCc2sc(-c3ccc(C(F)(F)F)c(F)c3)nc2C)ccc1OCC(=O)O [GW0742] (first compound 0.08 µM, partner dose 2 µM)	102%
Cc1cc(Nc2cc(N3CCN(C)CC3)nc(Sc3ccc(NC(=O)C4CC4)cc3)n2)n[nH]1 [Tozasertib] + C[C@]12O[C@H](C[C@]1(O)CO)n1c3ccccc3c3c4c(c5c6ccccc6n2c5c31)CNC4=O [Lestaurtinib] (first compound 0.006 µM, partner dose 0.004 µM)	83.7%
O=C(O)c1ccc2c(c1)nc(Nc1cccc(Cl)c1)c1ccncc12 + C[As](C)SC[C@H](NC(=O)CC[C@H](N)C(=O)O)C(=O)NCC(=O)O [Darinaparsin] (first compound 0.4 µM, partner dose 0.4 µM)	90.3%
Cn1c(Nc2ccc(C(F)(F)F)cc2)nc2cc(Oc3ccnc(-c4ncc(C(F)(F)F)[nH]4)c3)ccc21 + Cc1cc(SCc2sc(-c3ccc(C(F)(F)F)c(F)c3)nc2C)ccc1OCC(=O)O [GW0742] (first compound 0.08 µM, partner dose 2 µM)	79.8%
C#Cc1cccc(Nc2ncnc3cc(OCCOC)c(OCCOC)cc23)c1 [erlotinib] + O=C(Oc1ccc([N+](=O)[O-])cc1)N1CCC(C(O)(c2ccc3c(c2)OCO3)c2ccc3c(c2)OCO3)CC1 [JZL184] (first compound 0.8 µM, partner dose 1 µM)	104%
Cc1cc(Nc2cc(N3CCN(C)CC3)nc(Sc3ccc(NC(=O)C4CC4)cc3)n2)n[nH]1 [Tozasertib] + Cn1cc(C2=C(c3cn(C4CCN(Cc5ccccn5)CC4)c4ccccc34)C(=O)NC2=O)c2ccccc21 [Enzastaurin] (first compound 0.006 µM, partner dose 0.8 µM)	68.1%
O=C(CCCCCCC(=O)Nc1ccccc1)NO [vorinostat] + C/C(O)=C(\C#N)C(=O)Nc1cc(Br)ccc1Br [LFM-A13] (first compound 0.08 µM, partner dose 2 µM)	102%
Oc1cc(-c2nc(-c3ccccc3)[nH]c2-c2ccncc2)ccc1Cl + C/C(O)=C(\C#N)C(=O)Nc1cc(Br)ccc1Br [LFM-A13] (first compound 0.2 µM, partner dose 2 µM)	99.4%
c1cc(-c2cnn3cc(-c4ccc(OCCN5CCCCC5)cc4)cnc23)ccn1 [Dorsomorphin] + O=C(Oc1ccc([N+](=O)[O-])cc1)N1CCC(C(O)(c2ccc3c(c2)OCO3)c2ccc3c(c2)OCO3)CC1 [JZL184] (first compound 0.4 µM, partner dose 1 µM)	108%
CN1CCN(c2ccc3nc(-c4c(N)c5c(F)cccc5[nH]c4=O)[nH]c3c2)CC1 [Dovitinib] + C[As](C)SC[C@H](NC(=O)CC[C@H](N)C(=O)O)C(=O)NCC(=O)O [Darinaparsin] (first compound 0.1 µM, partner dose 0.4 µM)	89.8%
Cc1cc(Nc2cc(N3CCN(C)CC3)nc(Sc3ccc(NC(=O)C4CC4)cc3)n2)n[nH]1 [Tozasertib] + C[As](C)SC[C@H](NC(=O)CC[C@H](N)C(=O)O)C(=O)NCC(=O)O [Darinaparsin] (first compound 0.006 µM, partner dose 0.4 µM)	109%
C#Cc1cccc(Nc2ncnc3cc(OCCOC)c(OCCOC)cc23)c1 [erlotinib] + C/C(O)=C(\C#N)C(=O)Nc1cc(Br)ccc1Br [LFM-A13] (first compound 0.8 µM, partner dose 2 µM)	81.8%
Oc1nc(-c2ccc(C(F)(F)F)cc2)nc2c1CSCC2 + O=C(Oc1ccc([N+](=O)[O-])cc1)N1CCC(C(O)(c2ccc3c(c2)OCO3)c2ccc3c(c2)OCO3)CC1 [JZL184] (first compound 2 µM, partner dose 1 µM)	92.9%

SMILES	cell count
C[C@@H]1CCN(C(=O)CC#N)C[C@@H]1N(C)c1ncnc2[nH]ccc12 + Cc1cc(SCc2sc(-c3ccc(C(F)(F)F)c(F)c3)nc2C)ccc1OCC(=O)O [GW0742] (first compound 1 µM, partner dose 2 µM)	89.8%
COc1cc2ncnc(Nc3ccc(Oc4ccccc4)cc3)c2cc1OC + O=C(Oc1ccc([N+](=O)[O-])cc1)N1CCC(C(O)(c2ccc3c(c2)OCO3)c2ccc3c(c2)OCO3)CC1 [JZL184] (first compound 2 µM, partner dose 1 µM)	100%
C[C@@H]1CCN(C(=O)CC#N)C[C@@H]1N(C)c1ncnc2[nH]ccc12 + C/C(O)=C(\C#N)C(=O)Nc1cc(Br)ccc1Br [LFM-A13] (first compound 1 µM, partner dose 2 µM)	93.6%
COCC[n+]1c2c(n(Cc3cnccn3)c1C)C(=O)c1ccccc1C2=O + C/C(O)=C(\C#N)C(=O)Nc1cc(Br)ccc1Br [LFM-A13] (first compound 0.0004 µM, partner dose 2 µM)	82.8%
Cc1cc(Nc2cc(N3CCN(C)CC3)nc(Sc3ccc(NC(=O)C4CC4)cc3)n2)n[nH]1 [Tozasertib] + N.N.[Cl][Pt][Cl] [cisplatin] (first compound 0.006 µM, partner dose 1.6 µM)	92.3%
COc1cc2ncnc(Nc3ccc(Oc4ccccc4)cc3)c2cc1OC + C/C(O)=C(\C#N)C(=O)Nc1cc(Br)ccc1Br [LFM-A13] (first compound 2 µM, partner dose 2 µM)	135%
O=C(O)C(=O)Nc1sc2c(c1C(=O)O)CCNC2 + O=C(Oc1ccc([N+](=O)[O-])cc1)N1CCC(C(O)(c2ccc3c(c2)OCO3)c2ccc3c(c2)OCO3)CC1 [JZL184] (first compound 1.66667 µM, partner dose 1 µM)	93.8%
CC(C)C[C@H](NC(=O)[C@H](Cc1ccccc1)NC(=O)c1cnccn1)B(O)O [Bortezomib] + N.N.[Cl][Pt][Cl] [cisplatin] (first compound 0.001 µM, partner dose 1.6 µM)	67.2%
CC(C)C[C@H](NC(=O)[C@H](Cc1ccccc1)NC(=O)c1cnccn1)B(O)O [Bortezomib] + C[As](C)SC[C@H](NC(=O)CC[C@H](N)C(=O)O)C(=O)NCC(=O)O [Darinaparsin] (first compound 0.001 µM, partner dose 0.4 µM)	59.9%
Cc1nc(Nc2ncc(C(=O)Nc3c(C)cccc3Cl)s2)cc(N2CCN(CCO)CC2)n1 [dasatanib] + C/C(O)=C(\C#N)C(=O)Nc1cc(Br)ccc1Br [LFM-A13] (first compound 0.004 µM, partner dose 2 µM)	83.9%
Cn1c(Nc2ccc(C(F)(F)F)cc2)nc2cc(Oc3ccnc(-c4ncc(C(F)(F)F)[nH]4)c3)ccc21 + O=C(Oc1ccc([N+](=O)[O-])cc1)N1CCC(C(O)(c2ccc3c(c2)OCO3)c2ccc3c(c2)OCO3)CC1 [JZL184] (first compound 0.08 µM, partner dose 1 µM)	88.5%
C#Cc1cccc(Nc2ncnc3cc(OCCOC)c(OCCOC)cc23)c1 [erlotinib] + C[As](C)SC[C@H](NC(=O)CC[C@H](N)C(=O)O)C(=O)NCC(=O)O [Darinaparsin] (first compound 0.8 µM, partner dose 0.4 µM)	97.9%
Nc1ccn([C@@H]2O[C@H](CO)[C@@H](O)C2(F)F)c(=O)n1 [gemcitabine] + C[As](C)SC[C@H](NC(=O)CC[C@H](N)C(=O)O)C(=O)NCC(=O)O [Darinaparsin] (first compound 0.0004 µM, partner dose 0.4 µM)	91.3%
COc1cc(N2CCC(N3CCN(C)CC3)CC2)ccc1Nc1ncc(Cl)c(Nc2ccccc2S(=O)(=O)C(C)C)n1 + O=C(Oc1ccc([N+](=O)[O-])cc1)N1CCC(C(O)(c2ccc3c(c2)OCO3)c2ccc3c(c2)OCO3)CC1 [JZL184] (first compound 0.08 µM, partner dose 1 µM)	96.8%
Cn1c(Nc2ccc(C(F)(F)F)cc2)nc2cc(Oc3ccnc(-c4ncc(C(F)(F)F)[nH]4)c3)ccc21 + C/C(O)=C(\C#N)C(=O)Nc1cc(Br)ccc1Br [LFM-A13] (first compound 0.08 µM, partner dose 2 µM)	94.8%
CO[C@H]1C[C@@H]2CC[C@@H](C)[C@@](O)(O2)C(=O)C(=O)N2CCCC[C@H]2C(=O)O[C@H]([C@H](C)C[C@@H]2CC[C@@H](OCCO)[C@H](OC)C2)CC(=O)[C@H](C)/C=C(\C)[C@@H](O)[C@@H](OC)C(=O)[C@H](C)C[C@H](C)/C=C/C=C/C=C/1C [everolimus] + C[As](C)SC[C@H](NC(=O)CC[C@H](N)C(=O)O)C(=O)NCC(=O)O [Darinaparsin] (first compound 0.02 µM, partner dose 0.4 µM)	87.3%
C=CCn1c(=O)c2cnc(Nc3ccc(N4CCN(C)CC4)cc3)nc2n1-c1cccc(C(C)(C)O)n1 + O=C(Oc1ccc([N+](=O)[O-])cc1)N1CCC(C(O)(c2ccc3c(c2)OCO3)c2ccc3c(c2)OCO3)CC1 [JZL184] (first compound 0.02 µM, partner dose 1 µM)	99.2%

— the supplement of paper PMC4604168 (melanoma cell lines)
